{
  "sequences": {"note": "By UniProt entry, the sequences of proteins in these tests, tags left out. Where a name states a change or a piece, a line headed by the entry shows the natural chain unless it says otherwise.", "UniProt P46096": "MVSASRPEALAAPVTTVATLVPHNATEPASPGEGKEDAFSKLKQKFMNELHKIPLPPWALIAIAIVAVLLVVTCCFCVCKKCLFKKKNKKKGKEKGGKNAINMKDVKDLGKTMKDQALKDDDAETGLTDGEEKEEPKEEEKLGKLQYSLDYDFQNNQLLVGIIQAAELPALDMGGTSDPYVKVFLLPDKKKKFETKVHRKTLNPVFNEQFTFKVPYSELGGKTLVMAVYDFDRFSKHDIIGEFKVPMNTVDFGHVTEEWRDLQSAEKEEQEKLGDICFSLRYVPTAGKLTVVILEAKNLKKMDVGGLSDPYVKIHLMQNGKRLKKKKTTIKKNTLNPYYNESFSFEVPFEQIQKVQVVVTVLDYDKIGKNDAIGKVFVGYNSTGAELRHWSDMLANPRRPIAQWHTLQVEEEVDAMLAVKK", "UniProt P21707": "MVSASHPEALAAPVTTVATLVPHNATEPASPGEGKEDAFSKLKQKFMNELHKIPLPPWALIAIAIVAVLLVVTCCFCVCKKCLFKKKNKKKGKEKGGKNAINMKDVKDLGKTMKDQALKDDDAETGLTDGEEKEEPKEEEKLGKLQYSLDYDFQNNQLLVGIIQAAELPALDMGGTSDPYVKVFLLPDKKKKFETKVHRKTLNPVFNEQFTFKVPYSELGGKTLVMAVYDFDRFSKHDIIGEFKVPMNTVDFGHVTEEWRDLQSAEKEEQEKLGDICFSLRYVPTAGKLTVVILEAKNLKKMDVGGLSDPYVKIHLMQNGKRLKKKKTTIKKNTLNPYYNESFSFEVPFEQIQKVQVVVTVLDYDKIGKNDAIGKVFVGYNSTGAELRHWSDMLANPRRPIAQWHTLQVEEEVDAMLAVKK", "UniProt Q9R0N7": "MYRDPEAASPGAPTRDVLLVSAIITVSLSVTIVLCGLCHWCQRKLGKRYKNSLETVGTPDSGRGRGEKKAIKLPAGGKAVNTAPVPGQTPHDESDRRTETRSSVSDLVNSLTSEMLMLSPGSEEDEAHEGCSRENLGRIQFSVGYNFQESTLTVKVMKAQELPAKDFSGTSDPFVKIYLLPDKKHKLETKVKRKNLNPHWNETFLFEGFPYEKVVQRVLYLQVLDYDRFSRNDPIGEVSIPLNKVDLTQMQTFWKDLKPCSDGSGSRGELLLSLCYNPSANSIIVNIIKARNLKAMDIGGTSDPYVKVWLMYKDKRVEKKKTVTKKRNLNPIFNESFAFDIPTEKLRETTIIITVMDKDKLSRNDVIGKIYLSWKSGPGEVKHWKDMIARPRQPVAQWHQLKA"},
  "source": "paper PMC10284394",
  "molecules": {"B1": {"name": "myc-Rab26 (protein, UniProt Q9ULW5 1-256)", "chain": "MSRKKTPKSKGASTPAASTLPTANGARPARSGTALSGPDAPPNGPLQPGRPSLGGGVDFYDVAFKVMLVGDSGVGKTCLLVRFKDGAFLAGTFISTVGIDFRNKVLDVDGVKVKLQMWDTAGQERFRSVTHAYYRDAHALLLLYDVTNKASFDNIQAWLTEIHEYAQHDVALMLLGNKVDSAHERVVKREDGEKLAKEYGLPFMETSAKTGLNVDLAFTAIAKELKQRSMKAPSEPRFRLHDYVKREGRGASCCRP"}, "B2": {"name": "endogenous Rab26 (INS-1 cells) (protein, UniProt P51156 1-257)", "chain": "MSRKKTPKSKGGSVPAASTLPAAANGPRLAHPRTARPGPEAPPNGPPQSGRPSLGGTGDFYDVAFKVMLVGDSGVGKTCLLVRFKDGAFLAGTFISTVGIDFRNKVLDVDGMKVKLQIWDTAGQERFRSVTHAYYRDAHALLLLYDITNKDSFDNIQAWLTEIQEYAQQDVVLMLLGNKVDSTQERVVKREDGEKLAKEYGLPFMETSAKSGLNVDLAFTAIAKELKQRSTKAPSEPRFRLHDYVKREGRGVSCCRL"}, "B3": {"name": "His-Rab26 (protein, UniProt Q9ULW5 1-256)", "chain": "B1 chain"}, "B4": {"name": "GFP-Rab26 (protein, UniProt Q9ULW5 1-256)", "chain": "B1 chain"}, "B5": {"name": "GFP-Syt4 (protein, UniProt P40749 1-425)", "chain": "MAPITTSRVEFDEIPTVVGIFSAFGLVFTVSLFAWICCQRRSAKSNKTPPYKFVHVLKGVDIYPENLSSKKKFGGDDKSEVKGKAALPNLSLHLDLEKRDLNGNFPKANPKAGSSSDLENVTPKLFTETEKEANSPESLKSSTSLTSEEKQEKLGTLFLSLEYNFEKKAFVVNIKEAQGLPAMDEQSMTSDPYIKMTILPEKKHRVKTRVLRKTLDPVFDETFTFYGIPYPHIQELSLHFTVLSFDRFSRDDVIGEVLIPLSGIELSDGKMLMTREIIKRNAKKSSGRGELLVSLCYQSTTNTLTVVVLKARHLPKSDVSGLSDPYVKVNLYHAKKRISKKKTHVKKCTPNAVFNELFVFDIPCESLEEISVEFLVLDSERGSRNEVIGRLVLGATAEGSGGGHWKEICDFPRRQIAKWHMLCDG"}, "B6": {"name": "GFP-Rab26b (protein, UniProt Q9ULW5-1 67-256)", "chain": "MLVGDSGVGKTCLLVRFKDGAFLAGTFISTVGIDFRNKVLDVDGVKVKLQMWDTAGQERFRSVTHAYYRDAHALLLLYDVTNKASFDNIQAWLTEIHEYAQHDVALMLLGNKVDSAHERVVKREDGEKLAKEYGLPFMETSAKTGLNVDLAFTAIAKELKQRSMKAPSEPRFRLHDYVKREGRGASCCRP"}},
  "key": {"GST-Rab26Q123L": {"biological_target": "T1, GST-Rab26Q123L (UniProt Q9ULW5)", "T1 sequence": "B1 chain with Q123L", "experiment": "pull-down; GST-Rab26 fusion proteins coupled to GST-Sepharose 4B resin, incubated with lysates of 293T cells transfected with GFP-tagged proteins, 4°C for 4 h; western blot with GFP antibody; only the target purified"}, "GST-Rab26b": {"biological_target": "T2, GST-Rab26b (UniProt Q9ULW5)", "T2 sequence": "B6 chain", "experiment": "pull-down; GST-Rab26 fusion proteins coupled to GST-Sepharose 4B resin, incubated with lysates of 293T cells transfected with GFP-tagged proteins, 4°C for 4 h; western blot with GFP antibody; only the target purified"}, "GST-Rab26WT": {"biological_target": "T3, GST-Rab26WT (UniProt Q9ULW5)", "T3 sequence": "B1 chain", "experiment": "pull-down; GST-Rab26 fusion proteins coupled to GST-Sepharose 4B resin, incubated with lysates of 293T cells transfected with GFP-tagged proteins, 4°C for 4 h; western blot with GFP antibody; only the target purified"}, "GST-Syt1 (mouse) [1]": {"biological_target": "GST-Syt1 (mouse) (UniProt P46096)", "experiment": "pull-down; GST-Syt1 beads incubated overnight at 4°C with lysates of 293t cells cotransfected with myc-Vector or myc-Rab26 and GFP-SNAP25 or GFP-Syntaxin 1A; also cells incubated 5 min at 37°C with or without 10 μM CaCl2; western blot with GFP antibody; only the target purified"}, "[2]": {"biological_target": "endogenous Synaptotagmin-1 (INS-1 cells) (rat (endogenous in INS-1)) (UniProt P21707)", "experiment": "co-IP; INS-1 cell lysates immunoprecipitated with anti-Syt1 antibody; endogenous proteins; lysis buffer 20 mM HEPES pH 7.4, 1% Triton-100, 100 mM NaCl, 5 mM MgCl2"}, "GST-Syt1 (mouse) [3]": {"biological_target": "GST-Syt1 (mouse) (UniProt P46096)", "experiment": "pull-down; in vitro binding assay with prokaryotic-expressed GST-Syt1 and His-Rab26; both purified"}, "GST-Syt1 (mouse) [4]": {"biological_target": "GST-Syt1 (mouse) (UniProt P46096)", "experiment": "pull-down; GST-Syt1 beads incubated overnight at 4°C with lysates of 293t cells transfected with GFP-tagged Rab proteins; western blot with GFP antibody; only the target purified"}},
  "note": "Substitutions are numbered along the chain they refer to. These are yes or no findings as the source states them, for the method shown. For part of these data: In cells and extracts the contact can be indirect. Some entries that bind do so weakly or less than the wild type. For part of these data: Where a sequence is shown, tags or fusion partners need not be part of it.",
  "data": [
    {"molecule": "GFP-Syt1 (from UniProt P46096 1-421)", "values": [
      {"measurement": "binding", "setting": "GST-Rab26Q123L", "value": "binds"},
      {"measurement": "binding", "setting": "GST-Rab26b", "value": "no binding"},
      {"measurement": "binding", "setting": "GST-Rab26WT", "value": "binds"}
    ]},
    {"molecule": "GFP-Syt1C2A (1-263aa) (from UniProt P46096 1-263) (domain or fragment)", "values": [
      {"measurement": "binding", "setting": "GST-Rab26WT", "value": "binds"}
    ]},
    {"molecule": "GFP-Syt1C2B (264–422 aa) (from UniProt P46096 264-421) (domain or fragment)", "values": [
      {"measurement": "binding", "setting": "GST-Rab26WT", "value": "no binding"}
    ]},
    {"molecule": "GFP-Syt7 (from UniProt Q9R0N7 1-403)", "values": [
      {"measurement": "binding", "setting": "GST-Rab26WT", "value": "no binding"}
    ]},
    {"molecule": "B1", "values": [
      {"measurement": "binding", "setting": "GST-Syt1 (mouse) [1]", "value": "binds"}
    ]},
    {"molecule": "B2", "values": [
      {"measurement": "binding", "setting": "[2]", "value": "binds"}
    ]},
    {"molecule": "B3", "values": [
      {"measurement": "binding", "setting": "GST-Syt1 (mouse) [3]", "value": "binds"}
    ]},
    {"molecule": "B4", "values": [
      {"measurement": "binding", "setting": "GST-Syt1 (mouse) [4]", "value": "binds"}
    ]},
    {"molecule": "B5", "values": [
      {"measurement": "binding", "setting": "GST-Rab26WT", "value": "no binding"}
    ]},
    {"molecule": "B6", "values": [
      {"measurement": "binding", "setting": "GST-Syt1 (mouse) [4]", "value": "no binding"}
    ]}
  ]
}
